From PubChem BioAssay AID485367 (National Center for Advancing Translational Sciences (NCATS), 2010)
Hit rate of the full screen: of about 330,000 compounds, about 560 (0.17%) were called active. Inconclusive means that the source gave no clear call. Such entries were picked first, then a sample of the others. Calls follow the shape of the dose curve; as a rule, active = well fitted inhibition curve with a large enough effect; inconclusive = small, poorly fitted or top-dose-only effect, or effect the other way; inactive = flat fitted curve, though single readings scatter. Potencies of inconclusive entries are left out as doubtful fits.

target: ATP-dependent 6-phosphofructokinase (Trypanosoma brucei brucei) (UniProt O15648); assay: qHTS Assay to Find Inhibitors of T. brucei phosphofructokinase; also: nearly all actives have a fitted effect of over 60% in size;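 as to activity, negative = inhibition: 0% = uninhibited 1x PFK enzyme wells and -100% = no-enzyme wells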; settings: T. brucei PFK, ADP-Glo luminescence; activity, negative = inhibition: at 57.5 µM (top of the series)
UniProt O15648, sequence (O15648 whole entry, looked up): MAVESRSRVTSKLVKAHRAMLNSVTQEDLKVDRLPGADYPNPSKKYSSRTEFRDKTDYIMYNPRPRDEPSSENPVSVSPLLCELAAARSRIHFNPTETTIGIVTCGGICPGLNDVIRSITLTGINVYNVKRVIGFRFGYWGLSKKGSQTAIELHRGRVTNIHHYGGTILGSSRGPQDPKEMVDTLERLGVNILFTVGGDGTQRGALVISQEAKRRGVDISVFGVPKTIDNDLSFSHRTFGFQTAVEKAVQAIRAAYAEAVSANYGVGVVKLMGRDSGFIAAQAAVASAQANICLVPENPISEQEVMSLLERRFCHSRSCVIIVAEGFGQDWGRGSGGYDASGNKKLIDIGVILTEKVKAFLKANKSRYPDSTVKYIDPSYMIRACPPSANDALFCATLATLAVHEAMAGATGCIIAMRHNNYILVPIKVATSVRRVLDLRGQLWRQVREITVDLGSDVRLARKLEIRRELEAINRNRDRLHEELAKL
Outline: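 Luminescent ADP detection (ADP-Glo, two-step: ATP depletion then ADP-to-ATP conversion for luciferase) reported PFK activity after 45 min room-temperature reaction of 1.25 nM enzyme with 0.5 mM F6P and 0.1 mM ATP at pH 8.0.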
Potency is read from the fitted curve at half-maximal effect; tags tell the direction and shape of the fitted curve.

| Compound | activity, negative = inhibition | Potency |
| --- | --- | --- |
| COC(=O)c1ccc(S(=O)(=O)N2CCCN(Cc3cccc(Br)c3F)CC2)n1C | inactive: -1.02% | – |
| CCC1Nc2ncnc(N3CCN(c4ccccn4)CC3)c2N(Cc2ccc(Br)cc2)C1=O (configuration not stated) | inactive: 6.59% | – |
| S=C1NC(c2ccccc2)N2C(=S)NC(c3ccccc3)N12 (configuration not stated) | – | inconclusive [falling, single point] |
| CC1Sc2ccc(C(=O)NCc3ccccn3)cc2NC1=O (configuration not stated) | – | inconclusive [falling, single point] |
| CNc1ccc(S(=O)(=O)NCC(=O)NCCCc2ccccc2)cc1[N+](=O)[O-] | – | inconclusive [falling, single point] |
| COc1ccc(-c2nc(C)c(C(C)=O)n2O)cc1OC | – | inconclusive [falling, single point] |
| CCOc1cc(-c2nccc3cc(OC)c(OC)cc23)cc(OCC)c1OCC | – | inconclusive [activator, single point] |
| O=C(COC(=O)Cc1ccc(F)cc1)Nc1ccc2[nH]c(=O)[nH]c2c1 | – | inconclusive [falling, partial curve] |
| O=C(c1ccc(S(=O)(=O)c2cccc(Cl)c2)c([N+](=O)[O-])c1)N1CCN(c2ccccn2)CC1 | inactive: 0.797% | – |
| Cc1nnc(NC(=O)CCSCCC(=O)Nc2nnc(C)s2)s1 | – | inconclusive [falling, single point] |
| COCCCN1Cc2cccc(C(=O)O)c2C1=O | – | inconclusive [falling, single point] |
| Cn1c(=O)c2[nH]c(CNCc3ccccc3Cl)nc2n(C)c1=O | – | inconclusive [falling, single point] |
| CCCCCCCCNC(=O)/C(C#N)=C/c1ccccc1[N+](=O)[O-] | inactive: 0.402% | – |
| COc1cc([N+](=O)[O-])cc(/C=N/NC(=O)c2cc(C)nc3ccccc23)c1O | inactive: 0.96% | – |
| CCOc1ccc(NC(=O)CSc2nnc(C3CC3)n2C)cc1 | – | inconclusive [falling, single point] |
| Cc1cc(Nc2ccccc2)nc(NCc2ccccc2)n1 | inactive: -0.973% | – |
| CC(NC(=O)CCl)c1ccc(Cl)c(Cl)c1 (configuration not stated) | – | active: 19 µM |
| C/C(=N\Nc1ccc([N+](=O)[O-])cc1[N+](=O)[O-])c1ccc(-n2nncc2C(C)(C)C)cc1 | inactive: -7.21% | – |
| CCOC(=O)[C@@H]1[C@H]2COc3ccc(Br)cc3[C@@H]2N2C(=O)N(c3ccc(C(F)(F)F)cc3)C(=O)[C@@]12C | inactive: 0.312% | – |
| Cc1cc(C)c(S(=O)(=O)NCc2cccnc2)c(C)c1 | – | inconclusive [falling, single point] |
| C=CCn1c(SCC(=O)NCC2CCCO2)nc2scc(-c3ccco3)c2c1=O (configuration not stated) | – | inconclusive [falling, single point] |
| O=C1/C(=C/c2cccc(Br)c2)SC(=S)N1/N=C/c1cc([N+](=O)[O-])ccc1O | – | inconclusive [activator, single point] |
| O=C(NCc1ccco1)/C(=C/c1cccc(C(F)(F)F)c1)c1nc2ccccc2[nH]1 | – | inconclusive [activator, single point] |
| O=C(Nc1cccc(-c2nnn(CC(=O)N3CCc4ccccc4C3)n2)c1)C1CCC1 | – | active: 23.9 µM |

| Compound | activity, negative = inhibition | Potency |
| --- | --- | --- |
| COc1ccc(C(=O)Nc2ccnn2C2CCN(Cc3ccncc3)CC2)cc1 | – | inconclusive [falling, single point] |
| CCc1noc(C)c1C(=O)NCCN1C(=O)S/C(=C\c2ccc(OC)cc2)C1=O | inactive: -1.46% | – |
| Cc1ccc(S(=O)(=O)NN2C(=O)/C(=C/c3ccc(C(=O)O)cc3)SC2=S)cc1 | – | inconclusive [activator, single point] |
| Cc1c(Br)c([N+](=O)[O-])nn1CC(=O)Nc1ccc2nc3n(c(=O)c2c1)CCCC3 | – | inconclusive [falling, partial curve] |
| O=C(O)c1cc2nc(-c3cccs3)cc(C(F)(F)F)n2n1 | – | inconclusive [falling, partial curve] |
| COC(=O)[C@H](Cc1ccccc1)NC(=O)Cn1cnc2c(OCc3ccccc3)ncnc21 | – | inconclusive [falling, single point] |
| C=CCc1cc(/C=C/c2nc(O)c([N+](=O)[O-])c(=O)[nH]2)cc(OC)c1O | – | inconclusive [activator, single point] |
| CCOC(=O)N1CCC(NC(=O)c2cc(C(=O)NCc3cccc(Cl)c3)ccc2CO)CC1 | – | inconclusive [falling, single point] |
| NS(=O)(=O)c1ccc(NC(=S)NC2CC2)cc1 | – | inconclusive [falling, single point] |
| COc1ccc(/C=C2\SC(=O)N(CCC(=O)Nc3ccc(S(=O)(=O)Nc4nccs4)cc3)C2=O)cc1 | inactive: 0.777% | – |
| CCN(CC(=O)Nc1ccc(NC(C)=O)cc1)C(=O)CN1C(=O)NC2(CCCC2)C1=O | – | inconclusive [falling, single point] |
| Cc1ccc2cc(NC(=O)Cc3ccccc3)ccc2n1 | inactive: -4.23% | – |
| Cc1ccc(C(=O)NCc2ccc(Cl)c(Cl)c2)o1 | – | active: 10.7 µM |
| N#CC(c1cccc(C(F)(F)F)c1)(c1ncc(C(F)(F)F)cc1Cl)N1CCOCC1 (configuration not stated) | – | inconclusive [falling, single point] |
| Cn1c(-c2cccc(F)c2)nc2c1c(=O)[nH]c(=O)n2Cc1ccccc1 | – | inconclusive [falling, single point] |
| Cc1ccnc(SCC(=O)Nc2sccc2C#N)n1 | – | inconclusive [falling, single point] |
| CCc1ccc(NC(=O)CSc2nc(-c3ccc(C)cc3)nc3c2Cc2c(CO)cnc(C)c2O3)cc1 | – | inconclusive [falling, single point] |
| CC1CN(C(=O)C2CC(=O)N(c3ccc(Cl)cc3)C2)CC(C)O1 (configuration not stated) | inactive: -6.5% | – |
| Cc1ccc(-c2nc(N)s[n+]2-c2ccccc2)cc1 | – | inconclusive [falling, single point] |
| CCN(CC)CCNC(=O)c1cc2c(=O)n(C)c3ccccc3c2s1 | inactive: 0.208% | – |
| Cc1cccc(NC(=O)CN2C(=O)N/C(=C\c3cccn3-c3cccc(C(=O)O)c3)C2=O)c1 | inactive: -6.46% | – |
| COc1ccc(N2C(=O)CC(N3CCCCC3)C2=O)cc1 (configuration not stated) | – | inconclusive [activator, single point] |
| C[C@H]1CN(S(=O)(=O)c2c(F)cccc2F)CCN1S(=O)(=O)c1ccc2c(c1)OCCO2 | inactive: 0.582% | – |
| CCN(CC)C(=O)CSc1nnc2c3ccccc3n(C)c2n1 | inactive: -0.61% | – |

| Compound | activity, negative = inhibition | Potency |
| --- | --- | --- |
| COc1ccccc1C(=O)NNC(=O)c1cccc(F)c1 | – | inconclusive [falling, single point] |
| Cc1[nH][nH]c(=O)c1C(c1ccc(O)c([N+](=O)[O-])c1)c1c(C)[nH][nH]c1=O | inactive: 9.34% | – |
| Oc1ccc(N2CCN(Cc3nc4ccccc4[nH]3)CC2)cc1 | – | inconclusive [falling, partial curve] |
| CC(C)Cn1c(N)c(C(=O)COC(=O)c2cccc(Cl)c2)c(=O)n(C)c1=O | inactive: 1.7% | – |
| COCC1CCN(Cc2cn[nH]c2-c2ccc(OC)cc2F)C1 (configuration not stated) | inactive: 3.41% | – |
| Cc1cc(/C=C2\SC(=Nc3ccc(F)cc3)NC2=O)c(C)n1-c1ccc(S(N)(=O)=O)cc1 | inactive: -0.702% | – |
| COc1cccc(NC(=S)Nc2ccc(O)cc2)c1 | – | inconclusive [falling, partial curve] |
| CC1=C(C#N)C(=O)NC(=O)/C1=C/c1ccc(-c2ccc(S(N)(=O)=O)cc2)o1 | inactive: -6.61% | – |
| O=C(CN1C(=O)NC2(CCCCCCC2)C1=O)N1CCN(C(=O)c2ccco2)CC1 | – | inconclusive [falling, single point] |
| CCOC(=O)C(C)(C)N(Cc1ccc(Cl)cc1)S(=O)(=O)c1ccc(Cl)c([N+](=O)[O-])c1 | inactive: 5.43% | – |
| COCc1cc(C)n(CC(=O)Nc2ccccc2OC)c(=O)c1C#N | inactive: 0.721% | – |
| Nc1c(/C=C2/C=CC(=O)C(O)=C2)c(=O)nc2sc(CC(=O)N3CCCCC3)nn12 | – | active: 19 µM |
| Cc1ccc[n+](CC(=O)c2ccccc2)c1 | inactive: -4.24% | – |
| O=C(O)c1cc(Cl)ccc1-c1ccc(/C=C/c2cc(C(F)(F)F)[nH]c(=O)n2)o1 | – | inconclusive [activator, single point] |
| CCOC(=O)c1[nH]c2c(c1C)C(=O)CC(c1ccco1)C2 (configuration not stated) | – | inconclusive [falling, single point] |
| COc1ccc(C2=Nc3ccc(C)cc3C(c3ccccc3)N2CC(=O)NN)cc1 (configuration not stated) | inactive: -1.53% | – |
| NC(=O)CCCCC(=O)OCCCc1cccs1 | – | inconclusive [falling, single point] |
| Nc1ccc(C(=O)OCC(=O)Nc2cccc(S(=O)(=O)NC3=NCCCCC3)c2)cc1[N+](=O)[O-] | – | inconclusive [falling, single point] |
| CCOC(=O)c1cn(Cc2cccc(Cl)c2)nn1 | – | inconclusive [falling, partial curve] |
| COc1ccccc1NS(=O)(=O)c1cc(NC(=O)CNC(=O)c2ccccc2)ccc1C | inactive: -2.78% | – |
| COc1cccc(N2CCN(S(=O)(=O)c3cc4c(cc3Cl)NC(=O)CO4)CC2)c1 | inactive: 0.51% | – |
| CCN(CC)S(=O)(=O)c1ccc(OC)c(NC(=O)/C=C/c2ccco2)c1 | – | inconclusive [falling, full curve, poor fit] |
| Nc1nnnn1CC(=O)OCc1cccc(Br)c1 | – | inconclusive [falling, single point] |
| CC(C)CC(=O)NCCCCc1ccccc1 | – | inconclusive [activator, single point] |
